The campaign covered roughly 45,000 compounds. About 65 (0.1%) were called active. The call rests on the fitted dose curve; in most records, active means well fitted activation curve with a large enough effect; inconclusive means small, poorly fitted or top-dose-only effect; inactive means no such curve, though single readings can be large or run the other way. Some of the results follow.
Target: Galactocerebrosidase (Homo sapiens) (UniProt P54803)
Test: A Novel Cell-Based Assay to Identify Small Molecules for B -Galactocerebrosidase; further: 0% is about no effect; nearly all actives have a fitted effect of over 65% in size
Conditions: 145M-Twi-hGALC-G270D cells (Twitcher mouse brain line with human GALC G270D), HMU-beta-Gal fluorescence, 48 h; series mostly up to 57.5 µM; activation: at the top concentration
Outline: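 Fluorogenic HMU-b-Gal hydrolysis (0.1 mM final, pH 5.2 citrate-phosphate with 1 mg/mL sodium taurocholate; carbonate stop buffer) measures mutant GALC activity after compound treatment of live 145M-Twi Twitcher brain cells stably carrying human GALC-G270D, with wild-type GALC line alongside; activation sought.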

UniProt P54803, sequence (P54803 whole entry, looked up): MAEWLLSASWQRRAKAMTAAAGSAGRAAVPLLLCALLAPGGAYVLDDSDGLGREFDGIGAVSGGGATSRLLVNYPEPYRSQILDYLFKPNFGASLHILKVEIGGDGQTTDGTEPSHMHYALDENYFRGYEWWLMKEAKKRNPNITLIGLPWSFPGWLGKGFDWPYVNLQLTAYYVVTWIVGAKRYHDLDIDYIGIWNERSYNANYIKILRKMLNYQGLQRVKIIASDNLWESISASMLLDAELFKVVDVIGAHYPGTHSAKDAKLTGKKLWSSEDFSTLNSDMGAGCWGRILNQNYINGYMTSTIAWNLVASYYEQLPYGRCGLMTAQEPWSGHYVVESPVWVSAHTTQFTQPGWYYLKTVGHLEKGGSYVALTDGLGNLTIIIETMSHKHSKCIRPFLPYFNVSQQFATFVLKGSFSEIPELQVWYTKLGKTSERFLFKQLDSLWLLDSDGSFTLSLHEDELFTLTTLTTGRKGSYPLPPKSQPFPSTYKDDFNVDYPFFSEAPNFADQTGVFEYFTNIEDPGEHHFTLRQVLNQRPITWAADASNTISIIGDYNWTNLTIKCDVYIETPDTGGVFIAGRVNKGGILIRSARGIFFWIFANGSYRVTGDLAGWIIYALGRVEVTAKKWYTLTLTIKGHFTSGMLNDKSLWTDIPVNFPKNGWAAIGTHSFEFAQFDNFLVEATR

activation, inactive:
CC(=O)N1CCC(N(Cc2ccco2)C(=O)Nc2cccc(C)c2)CC1 -3.92%, CCOC(=O)c1cc2c(=O)n3ccccc3nc2n(CC2CCCO2)c1=NC(=O)c1cccc(C(F)(F)F)c1 (stereo not drawn) 0.549%, COc1ccc(-c2cc(C(=O)Nc3c(C(=O)c4ccc(Cl)cc4)oc4ccccc34)no2)cc1 -14.8%, Cc1cccc(NC(=O)c2cnn(-c3ccccc3)c2-n2cccc2)c1C -47%, CC(=O)N1CCCc2cc(S(=O)(=O)N3CCC(C(=O)NCCC(C)C)CC3)ccc21 -18.5%, O=C(NC1CC(=O)N(c2ccc(F)cc2)C1)c1cc2ccccc2o1 (stereo not drawn) -9.88%, Cc1nc2c(C(=O)NCc3ccccc3Cl)cnn2c(C)c1Cc1c(F)cccc1Cl -19.6%, CCOC(=O)c1nnc2c(-c3ccc(OC)cc3)c(C)nn2c1N -1.05%, COc1ccccc1NC(=O)n1ncc2c(C)cccc21 -27.2%, CN1CCN(C(c2ccccc2)c2sc3nc(-c4ccco4)nn3c2O)CC1 (stereo not drawn) -8.61%, COc1ccc(OC)c(C2CC(=O)c3c([nH]c(C(=O)OCC4CCCCC4)c3C)C2)c1 (stereo not drawn) -17.8%, Cc1cccc(CCn2c(=O)c3ccccc3n(Cc3cccc(F)c3)c2=O)c1 -9.08%, O=NN(CCCl)C(=O)NCCCl -7.45%, CC1CCc2nc(NC(=O)COc3ccc(C(C)(C)C)cc3)sc2C1 (stereo not drawn) -16.7%, CCOc1ccc(S(=O)(=O)Nc2ccc3oc(C)c(C(=O)OCCOC)c3c2)cc1 -10.5%, O=C(Cc1ccc(NC(=O)N2CCSc3ncccc32)cc1)NCc1ccccc1Cl -16.9%, CCCC(=O)N1CC(=O)Nc2ccc(Cl)cc2C1c1ccc(F)cc1 (stereo not drawn) -28.6%, CC(=O)c1cccc(NC(=O)CCS(=O)(=O)c2cc(Br)cc3c2N(C(=O)C2CC2)CC3)c1 -17.3%, Cc1csc2nc(COC(=O)COc3ccccc3F)cc(=O)n12 -9.9%, Cn1c(C(=O)NCc2ccc(F)cc2)cc2c(=O)n(C)c3ccccc3c21 -12.3%, COc1ccc(CCNC(=O)Cn2nnc(-c3ccc(C(F)(F)F)cc3)n2)cc1OC -22%, CCCn1c(=O)c2sccc2n2c(CCCC(=O)N3CCN(c4ccccc4)CC3)nnc12 -7.04%, CCS(=O)(=O)c1ncc(N(Cc2ccco2)Cc2sccc2C)c(C(=O)Nc2cc(C)ccc2C)n1 16.6%, Cc1nc2ccn(Cc3cccnc3)c(=O)c2cc1C(=O)Nc1ccc(OC(F)(F)F)cc1 -20.1%, Cc1ccccc1NS(=O)(=O)c1ccc2[nH]cc(C(=O)N3CCCC3)c(=O)c2c1 -22.3%, COCCn1c(SCC(=O)Nc2ccc(F)c(Cl)c2)nc2c(oc3ccccc32)c1=O -6.09%, COc1ccc(C(=O)NCCc2sc(-c3cccc(F)c3)nc2C)cc1 -3.44%, CCOc1ccccc1NC(=O)CCS(=O)(=O)c1cccc2nsnc12 2.29%, Cc1c2cnn(CC(=O)N3CCN(c4ccccc4)CC3)c(=O)c2c(C)n1Cc1ccc(F)cc1 -3.51%, Cc1ccc(C)c(Cn2c(C(C)NC(=O)c3ccc(F)cc3)nc3ccccc32)c1 (stereo not drawn) -6.21%, CCN(c1ccccc1)S(=O)(=O)c1cc(-c2onc(C)c2C)ccc1OC -7.87%, Cc1cccc(-c2noc(CCCC(=O)NCc3ccco3)n2)c1 -23.9%, Cc1ccc(Nc2ncnc3c2cnn3-c2ccccc2)c(C)c1 -13.6%, O=C(O)Cc1ccc(OCCNC[C@H](O)c2ccccc2)cc1 -9.66%, CC(=O)Nc1ccc(/C=N/NC(N)=S)cc1 -13.3%, COCCn1c(CCC(=O)Nc2cc(C)ccc2C)nc2cccnc21 -12.8%, COc1ccc(N2CCN(C(=O)c3c(C)oc4ncnc(N5CCCCC5)c34)CC2)cc1 -10.6%, CCOCCCNC(=O)C(c1ccccc1)N(Cc1cccs1)C(=O)c1ccc(NC(C)=O)cc1 (stereo not drawn) -8.49%, COc1cccc(N2C(=O)C(CC(=O)Nc3ccc(Cl)cc3)N(Cc3ccc4c(c3)OCO4)C2=O)c1 (stereo not drawn) -8.85%, CCc1cccc(NC(=O)c2nnn(Cc3ccc(SC)cc3)c2N)c1 3.86%, CCn1c(=O)c2sccc2n2c(CCCC(=O)N3CCN(c4ccc(OC)cc4)CC3)nnc12 5.02%, O=C1CC(c2ccccc2)Cc2[nH]c(=O)c(C(=O)Nc3ccc(OC(F)(F)F)cc3)cc21 (stereo not drawn) -13.1%, Cc1cccc(N2CCN(C(=O)C3CCCN(S(=O)(=O)c4cccc5nsnc45)C3)CC2)c1C (stereo not drawn) -14.4%, CC(C(=O)O)c1cccc(C(=O)c2ccccc2)c1 (stereo not drawn) -9.53%, O=C(Nc1ccc(Br)cc1)C1CCCN(S(=O)(=O)c2ccc(Br)s2)C1 (stereo not drawn) -10.1%, O=C(CCCCCn1c(=O)[nH]c2ccccc2c1=O)NCc1cccc(Cl)c1 -23.7%, Cc1ccc(NC(=O)CN2C(=O)C(c3ccc(F)cc3)=NC23CCCCC3)c(C)c1 -13.4%, CCc1ccccc1NC(=O)C(CC)Sc1ncnc2c1sc1ccccc12 (stereo not drawn) -4.81%, CCOc1ccccc1CNC(=O)C1CCN(S(=O)(=O)c2cccc3nonc23)CC1 2.84%, Cn1c(=O)c2c(SCC(=O)N3CCc4ccccc43)nc(-c3cccc(F)c3)nc2n(C)c1=O -5.07%, O=c1[nH]c2ccc(NCc3ccc(-c4cccc(Cl)c4)o3)cc2[nH]1 -12.3%, CCOc1ccc(S(=O)(=O)N2CCN(c3cc(Cl)ccc3Cl)CC2)c2ccccc12 -20.5%, Cc1ccnc(NS(=O)(=O)c2ccc(NC(=O)C(C)(C)Oc3ccc(Cl)cc3)cc2)n1 -12.3%, COc1ccc(OCc2nc3ccccc3n2C(C)c2ccccc2)cc1 (stereo not drawn) -11.9%, CCOc1cccc2cc(-c3cn4c(n3)sc3cc(C)ccc34)c(=O)oc12 -5.87%, CCOc1ccccc1NC(=O)CSc1nc2c(c(=O)[nH]1)CCC2 -19.9%, O=C(NCc1ccc(Cl)cc1)c1ccc(CSCc2cccc(Cl)c2)o1 -38%, O=C(Cc1ccccc1)N(Cc1cccnc1)c1nc2c(F)cccc2s1 -5.79%, O=C(Nc1ccc(Cl)cc1F)c1oc(=O)c2ccccc2c1-c1ccccc1 -12.3%, Cc1ccccc1OC(=O)c1snnc1C -11.6%, Cc1cc(Br)ccc1NC(=O)C(Cc1ccccc1)NS(=O)(=O)c1ccc(Br)s1 (stereo not drawn) -15.9%, CCOc1cc(C2Nc3ccccc3-c3nnc(SCc4ccccc4)nc3O2)ccc1OC (stereo not drawn) -2%, CCC(C(=O)Nc1ccc(C(=O)OC)cc1)n1nc(-c2ccc(C)cc2)c2c(c1=O)CCCC2 (stereo not drawn) -17.7%, Cc1cc(C)c2c(CC(=O)Nc3ccc(S(=O)(=O)N4CCCC(C)C4)cc3)coc2c1 (stereo not drawn) -17.3%, Nc1nc(Nc2cccc(C(F)(F)F)c2)sc1C(=O)c1ccccc1 -8.28%, Cc1ccc(OCC(=O)Nc2cccc(OCc3cc(=O)n4ccccc4n3)c2)cc1C -9.65%, COc1cccc(CNC(=O)c2cc3cccc4c3n2CC(C)S4)c1OC (stereo not drawn) -26.9%, C#CCn1c(COc2ccccc2C)nc2ccccc21 -11%, COc1cc(OC)c(OC)cc1CNCCSc1nnnn1-c1ccccc1 -1.8%, Cn1c(CNC(=O)CSc2n[nH]c(-c3ccccc3Cl)n2)nc2ccccc21 3.74%, Cc1cccc(N(C)C(=O)CN2C(=O)COc3ccc(S(=O)(=O)N4CCCCCC4)cc32)c1 -8.66%, CCN(Cc1ccccc1)C(=O)C1CCN(c2ncnc3c2nc2n3CCCCC2)CC1 8.28%, COc1cc2c(=O)c(S(=O)(=O)c3ccc(F)cc3)cn(Cc3ccccc3C)c2cc1OC -1.39%, Cc1ccc(-n2cc(-c3ccccc3)c3c(NC4CCCC4)ncnc32)cc1 -9.51%, Cc1ccc(-c2noc(-c3ccc(N4CCC(C)CC4)c([N+](=O)[O-])c3)n2)cc1 -11.7%, Cc1c(C(=O)N2CCC(c3nc4ccccc4s3)CC2)oc2cc(Br)ccc12 -13.8%, COc1cc(C2c3c(oc4cc(C)c(C)cc4c3=O)C(=O)N2CCCN2CCOCC2)ccc1O (stereo not drawn) -5.39%, CC(O)COc1ccccc1 (stereo not drawn) -17.7%, CCOC(=O)c1cc(S(=O)(=O)Nc2ccc(Br)c(C)c2)[nH]n1 -13.7%, Cc1ccc2c(c1)c1c(c(=O)n(-c3cccc(Cl)c3)c(=O)n1CC(=O)N1CCCC1)n2C -6.79%, CC(C)Cc1ccc(C(C)C(=O)OCc2ccccn2)cc1 (stereo not drawn) -7.93%, CCCNC(=O)c1cc2nc(-c3ccc(Br)cc3)cc(C(F)(F)F)n2n1 -7.28%, CCOc1cccc2cc(-c3nc4sc5c(c4c(=O)[nH]3)CCC(C(C)(C)C)C5)c(=O)oc12 (stereo not drawn) -13.2%, CCOc1ccc(-n2c(SCc3nc(-c4ccc(OC)cc4)no3)nnc2-c2ccncc2)cc1 -10.2%, COc1ccc(Br)cc1CNC(=O)c1cc(=O)[nH]c2ccc(S(=O)(=O)N3CCCC3)cc12 -15.1%, Cc1nc2ccccc2n1CCc1nc2c3ccccc3nc(SCc3cccc(F)c3)n2n1 -9.17%, CC1=C(C(=O)Nc2ccccc2)C(c2ccccc2C)n2ncc(C(=O)Nc3ccccc3)c2N1 (stereo not drawn) 3.59%, Cc1cc(C)cc(OCCn2c(C3CC(=O)N(c4ccccc4Cl)C3)nc3ccccc32)c1 (stereo not drawn) -44.4%, CCOc1ccccc1NC(=O)Cn1c(=O)n(CCC(C)C)c(=O)c2cccnc21 -8.44%, O=C(COC(=O)c1cc(-c2cccs2)nc2ccccc12)c1ccc(Br)cc1 -21.7%, Cn1c(=O)c2sccc2n2c(CCC(=O)NCc3ccc(F)cc3)nnc12 -14.2%, COc1ccc(CCNC(=O)CCn2c(=O)c3ccccc3n(CC(=O)Nc3ccccc3F)c2=O)cc1OC 2.68%, Cc1ccc2c(=O)c(C(=O)c3ccccc3)cn(CC(=O)Nc3ccc4c(c3)OCCO4)c2n1 -14.5%, Cn1c(=O)oc2cc(S(=O)(=O)N3CCC(C(=O)NCc4ccccc4Cl)CC3)ccc21 -0.24%, Cc1ccc(NC(=O)Cn2nc(C)c3nn(-c4ccc(Cl)cc4)c(C)c3c2=O)cc1C -7.05%, O=C1CN(C(=O)Cc2ccc(F)cc2)C(c2ccccc2)c2cc(Br)ccc2N1 (stereo not drawn) -16.7%, CCCCN(CC)CCNC(=O)Cn1cnc2sc(C)c(S(=O)(=O)N3CCC(C)CC3)c2c1=O -26.2%, COc1ccc(Cn2c(C(=O)O)c(CNCc3cccc(OC)c3)c3ccc(C)cc32)cc1 -21%

Reference: PubChem BioAssay AID1159614 (National Center for Advancing Translational Sciences (NCATS), 2016)
